Laboratory results reported in the CheMixHub ionic liquid set.
This continues a long series; more values of the same kind are listed elsewhere.

Assay: xn = mol fraction of the nth substance listed

CCCCCCCC[n+]1ccccc1.[Br-] + C[C@H](N)C(=O)O + O
100 kPa
Settings | electrical conductivity [S/m]
288.15 K, x2 = 0.001788, x1 = 0.005928 | 1.2
288.15 K, x2 = 0.001788, x1 = 0.006261 | 1.23
288.15 K, x2 = 0.001789, x1 = 0.005332 | 1.14
288.15 K, x2 = 0.001789, x1 = 0.005641 | 1.17
288.15 K, x2 = 0.00179, x1 = 0.004641 | 1.07
288.15 K, x2 = 0.00179, x1 = 0.005005 | 1.11
288.15 K, x2 = 0.001791, x1 = 0.004243 | 1.01
288.15 K, x2 = 0.001792, x1 = 0.003806 | 0.943
288.15 K, x2 = 0.001793, x1 = 0.003323 | 0.857
293.15 K, x2 = 0.001788, x1 = 0.005921 | 1.36
293.15 K, x2 = 0.001788, x1 = 0.006256 | 1.4
293.15 K, x2 = 0.001789, x1 = 0.005325 | 1.29
293.15 K, x2 = 0.001789, x1 = 0.005634 | 1.33
293.15 K, x2 = 0.00179, x1 = 0.004635 | 1.21
293.15 K, x2 = 0.00179, x1 = 0.005 | 1.25
293.15 K, x2 = 0.001791, x1 = 0.004239 | 1.14
293.15 K, x2 = 0.001792, x1 = 0.003802 | 1.07
293.15 K, x2 = 0.001793, x1 = 0.003319 | 0.967
298.15 K, x2 = 0.001788, x1 = 0.005914 | 1.53
298.15 K, x2 = 0.001788, x1 = 0.006249 | 1.58
298.15 K, x2 = 0.001789, x1 = 0.00532 | 1.46
298.15 K, x2 = 0.001789, x1 = 0.005628 | 1.5
298.15 K, x2 = 0.00179, x1 = 0.00463 | 1.35
298.15 K, x2 = 0.00179, x1 = 0.004993 | 1.41
298.15 K, x2 = 0.001791, x1 = 0.004234 | 1.28
298.15 K, x2 = 0.001792, x1 = 0.003797 | 1.2
298.15 K, x2 = 0.001793, x1 = 0.003315 | 1.09
303.15 K, x2 = 0.001788, x1 = 0.005908 | 1.72
303.15 K, x2 = 0.001788, x1 = 0.006242 | 1.76
303.15 K, x2 = 0.001789, x1 = 0.005314 | 1.63
303.15 K, x2 = 0.001789, x1 = 0.005623 | 1.68
303.15 K, x2 = 0.00179, x1 = 0.004626 | 1.51
303.15 K, x2 = 0.00179, x1 = 0.004989 | 1.57
303.15 K, x2 = 0.001791, x1 = 0.00423 | 1.43
303.15 K, x2 = 0.001792, x1 = 0.003795 | 1.33
303.15 K, x2 = 0.001793, x1 = 0.003314 | 1.21
308.15 K, x2 = 0.001788, x1 = 0.005896 | 1.95
308.15 K, x2 = 0.001788, x1 = 0.006229 | 2.02
308.15 K, x2 = 0.001789, x1 = 0.005304 | 1.81
308.15 K, x2 = 0.001789, x1 = 0.005611 | 1.88
308.15 K, x2 = 0.00179, x1 = 0.004615 | 1.67
308.15 K, x2 = 0.00179, x1 = 0.004978 | 1.75
308.15 K, x2 = 0.001791, x1 = 0.004221 | 1.58
308.15 K, x2 = 0.001792, x1 = 0.003786 | 1.47
308.15 K, x2 = 0.001793, x1 = 0.003306 | 1.32

CCCCCCCCCCCC[N+](C)(C)C.[Br-] + O
101 kPa
Settings | viscosity [mPa·s]
298.15 K, x1 = 8.883e-05 | 0.8988
298.15 K, x1 = 0.0001436 | 0.9014
298.15 K, x1 = 0.0002003 | 0.9037
298.15 K, x1 = 0.0002193 | 0.9058
298.15 K, x1 = 0.0002688 | 0.9094
298.15 K, x1 = 0.0003253 | 0.9145
298.15 K, x1 = 0.0003619 | 0.9151
298.15 K, x1 = 0.0005435 | 0.9292
298.15 K, x1 = 0.0009029 | 0.9587
298.15 K, x1 = 0.001804 | 1.04
313.15 K, x1 = 5.406e-05 | 0.611
313.15 K, x1 = 0.0001081 | 0.612
313.15 K, x1 = 0.0001622 | 0.617
313.15 K, x1 = 0.0002162 | 0.615
313.15 K, x1 = 0.0002702 | 0.617
313.15 K, x1 = 0.0003242 | 0.62
313.15 K, x1 = 0.0003783 | 0.624
313.15 K, x1 = 0.0004323 | 0.626
313.15 K, x1 = 0.0004863 | 0.628
313.15 K, x1 = 0.0005403 | 0.629

CCCCCCCCCCCCCCCC[n+]1ccccc1.[Cl-] + C[C@H](N)C(=O)O + O
308.15 K, 101 kPa
Settings | electrical conductivity [S/m]
x2 = 0.0003926, x1 = 8.536e-05 | 0.00602
x2 = 0.0003926, x1 = 9.294e-05 | 0.00624
x2 = 0.0003926, x1 = 0.0001002 | 0.00645
x2 = 0.0003926, x1 = 0.0001072 | 0.0067
x2 = 0.0003926, x1 = 0.0001139 | 0.00687
x2 = 0.0003926, x1 = 0.0001204 | 0.00693
x2 = 0.0009271, x1 = 1.754e-05 | 0.00309
x2 = 0.0009271, x1 = 1.971e-05 | 0.0033
x2 = 0.0009271, x1 = 2.17e-05 | 0.00338
x2 = 0.0009271, x1 = 2.387e-05 | 0.00355
x2 = 0.0009271, x1 = 2.586e-05 | 0.0037
x2 = 0.0009271, x1 = 2.984e-05 | 0.00391
x2 = 0.0009271, x1 = 3.382e-05 | 0.00405
x2 = 0.0009271, x1 = 3.78e-05 | 0.00424
x2 = 0.0009271, x1 = 4.16e-05 | 0.00439
x2 = 0.0009271, x1 = 4.521e-05 | 0.00452
x2 = 0.0009271, x1 = 4.901e-05 | 0.00458
x2 = 0.0009271, x1 = 5.082e-05 | 0.00472
x2 = 0.0009271, x1 = 5.968e-05 | 0.00501
x2 = 0.0009271, x1 = 6.8e-05 | 0.00535
x2 = 0.0009271, x1 = 7.614e-05 | 0.00552
x2 = 0.0009271, x1 = 8.391e-05 | 0.00576
x2 = 0.0009271, x1 = 9.133e-05 | 0.00595
x2 = 0.0009271, x1 = 9.856e-05 | 0.00626
x2 = 0.0009271, x1 = 0.0001054 | 0.00643
x2 = 0.0009271, x1 = 0.0001121 | 0.00655
x2 = 0.0009271, x1 = 0.0001185 | 0.00667
x2 = 0.0009272, x1 = 1.09e-06 | 0.000415
x2 = 0.0009272, x1 = 2.35e-06 | 0.000686
x2 = 0.0009272, x1 = 3.44e-06 | 0.000935
x2 = 0.0009272, x1 = 4.52e-06 | 0.00115
x2 = 0.0009272, x1 = 5.61e-06 | 0.00138
x2 = 0.0009272, x1 = 6.69e-06 | 0.00157
x2 = 0.0009272, x1 = 7.78e-06 | 0.00174
x2 = 0.0009272, x1 = 9.04e-06 | 0.001945
x2 = 0.0009272, x1 = 1.013e-05 | 0.00209
x2 = 0.0009272, x1 = 1.121e-05 | 0.00233
x2 = 0.0009272, x1 = 1.23e-05 | 0.00244
x2 = 0.0009272, x1 = 1.338e-05 | 0.00264
x2 = 0.0009272, x1 = 1.447e-05 | 0.00282
x2 = 0.0009272, x1 = 1.537e-05 | 0.00292
x2 = 0.001838, x1 = 1.09e-06 | 0.000537
x2 = 0.001838, x1 = 2.36e-06 | 0.000825
x2 = 0.001838, x1 = 3.45e-06 | 0.001043
x2 = 0.001838, x1 = 4.54e-06 | 0.001301
x2 = 0.001838, x1 = 5.81e-06 | 0.001447
x2 = 0.001838, x1 = 6.9e-06 | 0.00176
x2 = 0.001838, x1 = 7.99e-06 | 0.001944
x2 = 0.001838, x1 = 9.08e-06 | 0.00205
x2 = 0.001838, x1 = 1.016e-05 | 0.00219
x2 = 0.001838, x1 = 1.125e-05 | 0.00241
x2 = 0.001838, x1 = 1.252e-05 | 0.00269
x2 = 0.001838, x1 = 1.361e-05 | 0.00279
x2 = 0.001838, x1 = 1.47e-05 | 0.0029
x2 = 0.001838, x1 = 1.579e-05 | 0.00308
x2 = 0.001838, x1 = 1.797e-05 | 0.00324
x2 = 0.001838, x1 = 1.997e-05 | 0.00329
x2 = 0.001838, x1 = 2.214e-05 | 0.0035
x2 = 0.001838, x1 = 2.432e-05 | 0.0036
x2 = 0.001838, x1 = 2.632e-05 | 0.00368
x2 = 0.001838, x1 = 3.049e-05 | 0.00382
x2 = 0.001838, x1 = 3.449e-05 | 0.00396
x2 = 0.001838, x1 = 3.848e-05 | 0.00417
x2 = 0.001838, x1 = 4.229e-05 | 0.00451
x2 = 0.001838, x1 = 4.61e-05 | 0.00469
x2 = 0.001838, x1 = 4.991e-05 | 0.0048
x2 = 0.001838, x1 = 5.173e-05 | 0.0049
x2 = 0.001838, x1 = 6.062e-05 | 0.00522
x2 = 0.001838, x1 = 6.933e-05 | 0.00531
x2 = 0.001838, x1 = 7.75e-05 | 0.00573
x2 = 0.001838, x1 = 8.548e-05 | 0.00582
x2 = 0.001838, x1 = 9.292e-05 | 0.00605
x2 = 0.001838, x1 = 0.0001004 | 0.00625
x2 = 0.001838, x1 = 0.0001073 | 0.0064
x2 = 0.001838, x1 = 0.000114 | 0.00659
x2 = 0.001838, x1 = 0.0001205 | 0.00677
